Measured values reported in PubChem BioAssay AID686978 (National Center for Advancing Translational Sciences (NCATS), 2013).
Where “and” joins values, the source holds several entries; their conditions need not be identical. Equal values may be shown once. The whole screen tested about 420,000 compounds, of which about 64,000 (15%) were called active. Inconclusive means that the source gave no clear call. Such entries were picked first, then a sample of the others. The call rests on the fitted dose curve; in most records, active means well fitted inhibition curve with a large enough effect; inconclusive means small, poorly fitted or top-dose-only effect; inactive means flat fitted curve, though single readings scatter. Potencies of inconclusive entries are left out as doubtful fits.
On the % scale 0 is the no-effect control and ±100 the full control effect; potency means the concentration at half of the fitted maximal effect; tags describe the fitted curve by direction and shape.

Assay: qHTS for Inhibitors of human tyrosyl-DNA phosphodiesterase 1 (TDP1): qHTS in cells in absence of CPT; further: nearly all actives have a fitted effect of over 55% in size
Conditions: DT40 Tdp1-/- hTDP1 cells, no CPT, ATP luminescence, 48 h; activity change, negative = growth inhibition: at 46.2 µM (top of the series) unless noted
Procedure, shortened: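 Cells were dispensed at 400 per well, compounds added by pin tool, plates incubated ≥48 hr at 37 °C, then CellTiter-Glo added for 30 min at room temperature before luminescence reading. Line: DT40 Tdp1-/- complemented with hTDP1; camptothecin omitted.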
In the case of `CNC(=O)Cn1c(C)cc(=O)c2cccc(OC)c21`, the Potency is reported as “inactive”.
For `Cc1cc(C)cc(NC(=O)C2(c3ccccc3)CC2(Cl)Cl)c1` (configuration not stated), the Potency was inconclusive [inhibitor, partial curve, poor fit].
In the case of `Cc1ccc(-n2nc(C)c3c2OC(N)=C(C#N)C3c2ccc(F)cc2)cc1` (configuration not stated), the activity change, negative = growth inhibition is reported as inconclusive: -32.9% [inhibitor].
In the case of `O=C(c1ccc(Cl)c(S(=O)(=O)N2CCOCC2)c1)N1CCN(c2ccccn2)CC1`, the Potency is reported as inconclusive [inhibitor, single point].
For `COc1cccc(NC(=O)CSc2nn3c(=O)c(C)nnc3s2)c1`, the Potency was “inactive”.
With `Cc1cc2c(NC(=O)Nc3ccccc3)cccc2nn1` the activity change, negative = growth inhibition was inconclusive: -39.2% [inhibitor].
In the case of `COc1ccc(OC)c(S(=O)(=O)Nc2ccc3oc4c(c3c2)C(=O)CCC4)c1`, the Potency is reported as inconclusive [inhibitor, partial curve].
For `CC1=NN(Cc2ccccc2)C(=O)/C1=C/c1ccc(N(C)C)cc1`, the Potency was inconclusive [inhibitor, single point].
For `O=S(=O)(NCCc1cn2ccccc2n1)c1ccc(F)c(C(F)(F)F)c1`, the Potency was inconclusive [inhibitor, single point].
With `O=C(N/N=C/c1cc([N+](=O)[O-])ccc1O)NC12CC3CC(CC(C3)C1)C2` the Potency was inconclusive [inhibitor, single point].
With `CC(C)NC(=O)N(C)C[C@H]1Oc2c(NC(=O)Nc3ccc4c(c3)OCO4)cccc2C(=O)N([C@H](C)CO)C[C@@H]1C` the Potency was inconclusive [inhibitor, single point].
For `O=C(/C=C/c1ccc(Cl)cc1)Nn1c(-c2cccs2)nc2ccccc2c1=O`, the Potency was inconclusive [inhibitor, single point].
In the case of `CC(=O)c1ccc(N2CCN(S(=O)(=O)c3ccc4ccccc4c3)CC2)cc1`, the Potency is reported as inconclusive [inhibitor, single point].
For `COc1cc(/C=N/NC(=O)C(=O)NCC2CCCO2)ccc1OCC(=O)N1CCOCC1` (configuration not stated), the Potency was “inactive”.
For `O=C(CC1N=C2c3ccccc3N=C(SCc3ccc(F)cc3)N2C1=O)NCc1ccc2c(c1)OCO2` (configuration not stated), the Potency was inconclusive [inhibitor, single point].
With `CCCCNC1C(CC)C(CCC)C(C#N)(C#N)C1(C#N)C#N` (configuration not stated) the Potency was active: 8.2 µM.
For `O=C(NCCO)c1cccc2c1C(=O)c1ccccc1-2`, the Potency was inconclusive [inhibitor, single point].
In the case of `Cc1cccc(OC(C)C(=O)Nc2cc(S(=O)(=O)N3CCCCC3)ccc2C)c1` (configuration not stated), the Potency is reported as inconclusive [inhibitor, single point].
With `COC(=O)[C@]1(Cc2ccccc2)N[C@H](CN(C)S(=O)(=O)c2ccc(F)cc2)[C@@H]2C(=O)N(Cc3ccccc3)C(=O)[C@@H]21` the Potency was inconclusive [inhibitor, partial curve].
In the case of `Cc1ccc(SCc2c(C(=O)N/N=C/c3ccc(C)o3)nnn2-c2nonc2N)cc1`, the Potency is reported as inconclusive [inhibitor, single point].
For `Cc1c(C(=O)Nc2ccc(Cl)cn2)oc2ccccc12`, the Potency was inconclusive [inhibitor, partial curve].
In the case of `CCN(CC)CCNC(=O)c1ccc(NC(=O)/C=C/c2ccc3ccccc3n2)cc1`, the Potency is reported as inconclusive [inhibitor, single point].
With `O=C(CSc1nc(-c2ccccc2)nc2ccccc12)Nc1cccc(C(=O)O)c1` the Potency was inconclusive [inhibitor, single point].
In the case of `CC[C@]12c3[nH]c4ccc(OC)cc4c3CCN1C(=O)C(CC(=O)NC/C=C(\C)CCC=C(C)C)C[C@@H]2C(=O)N1CCN(C(=O)C2CC2)CC1` (some centres not stated), the Potency is reported as inconclusive [inhibitor, single point].
For `CCc1ccc(NC(=O)c2ccc(-c3ccccc3)s2)cc1`, the Potency was inconclusive [inhibitor, partial curve, poor fit].
With `COCCn1c(SCc2nc3ccccc3c(=O)[nH]2)nc2ccccc2c1=O` the Potency was inconclusive [inhibitor, single point].
In the case of `O=C(NCCN1CCN(c2cccc(Cl)c2)CC1)Nc1ccccc1`, the Potency is reported as active: 20.6 µM and active: 14.6 µM.
For `CC(NS(=O)(=O)c1ccc(Br)cc1)C(c1cccs1)N1CCOCC1` (configuration not stated), the Potency was inconclusive [inhibitor, single point].
In the case of `CCOC(=O)C(=O)N/N=C/c1ccc(F)cc1`, the Potency is reported as “inactive”.
For `Cc1ccc(NC(=O)CSc2nnc3ccc4ccccc4n23)cc1`, the Potency was inconclusive [inhibitor, single point].
With `CC(C)N(C(=S)NC1CC2CCC1C2)c1ccccc1` (configuration not stated) the Potency was inconclusive [inhibitor, partial curve].
With `CCn1c(C)nc2cc(C(=O)N/N=C/c3cccc(O)c3O)ccc21` the Potency was active: 9.2 µM.
For `CCCCC(=O)O[C@@]1(C(=O)CO)C(C)CC2C3CCC4=CC(=O)C=C[C@@]4(C)[C@]3(F)C(O)C[C@]21C` (some centres not stated), the Potency was “inactive”.
In the case of `COc1ccc(OCCCc2c(C)n[nH]c2C)cc1`, the Potency is reported as inconclusive [inhibitor, partial curve].
For `CC(=O)Nc1nc2cc3c(cc2s1)OCCO3`, the Potency was active: 23.1 µM.
With `CN(C)c1ccc(C2CC(c3cccc(NS(C)(=O)=O)c3)=NN2C(=O)c2ccccc2)cc1` (configuration not stated) the Potency was inconclusive [inhibitor, single point].
In the case of `Cc1ccc(Cc2nc3ccccc3[nH]2)cc1`, the Potency is reported as inconclusive [inhibitor, single point].
With `Cc1cccc(C(=O)NCC(c2ccco2)S(=O)(=O)c2cccs2)c1` (configuration not stated) the Potency was inconclusive [inhibitor, single point].
In the case of `COc1cccc(NC(=O)COc2cccc3c2CCNC3=O)c1`, the Potency is reported as “inactive”.
In the case of `C[C@H](CO)N1C[C@H](C)[C@@H](CN(C)C(=O)Nc2ccccc2)Oc2ccc(NS(=O)(=O)c3ccc(F)cc3)cc2C1=O`, the Potency is reported as “inactive”.
In the case of `O=C(CCCc1c[nH]c2ccccc12)NCc1ccccc1C(F)(F)F`, the Potency is reported as inconclusive [inhibitor, single point].
In the case of `CCc1cnc2c(c1SCC(=O)NCc1ccccc1Cl)c(=O)n(C)c(=O)n2C`, the Potency is reported as “inactive”.
In the case of `CC(C)(C)c1ccc(-c2ccc3c(c2)S(=O)(=O)c2ccccc2C3=O)cc1`, the Potency is reported as active: 23.1 µM.
With `N#Cc1ccc(C2=CC(=O)C[C@H](c3ccc(F)cc3)C2)cc1` the Potency was “inactive”.
For `CCc1ccc(NC(=O)c2cnn(-c3ccccc3)c2-n2cccc2)cc1`, the Potency was inconclusive [inhibitor, single point].
For `CCOC(=O)C1CCCN(C(=O)CCC(=O)Nc2ccc3nc(N4CCOCC4)cc(C)c3c2)C1` (configuration not stated), the Potency was inconclusive [inhibitor, partial curve].
For `CN(CC(=O)Nc1ccccc1Cl)CC(=O)Nc1cccc2ccccc12`, the Potency was inconclusive [inhibitor, single point].
With `C/C(=N/NC(=O)CNC(=O)c1ccccn1)c1cccc([N+](=O)[O-])c1` the Potency was inconclusive [inhibitor, single point].
With `c1ccc(-c2cnnc(-c3ccccn3)n2)cc1` the Potency was inconclusive [inhibitor, single point].
In the case of `CC1(C)C=Cc2c(c3ccccc3[nH]c2=O)O1`, the Potency is reported as inconclusive [inhibitor, partial curve].
For `COc1ccc(CN2CN(S(=O)(=O)c3ccccc3)c3nc4ccccc4nc32)cc1`, the Potency was inconclusive [inhibitor, partial curve].
With `CCOC(=O)N1CCC(N2Cc3cccc(C(=O)Nc4c(C)cccc4CC)c3C2=O)CC1` the Potency was active: 23.1 µM.
For `Cc1ccccc1CNC(=O)c1cnc2sc(N3CCC(C)CC3)nn2c1=O`, the Potency was “inactive”.
For `OCCC1CCCCN1CC(O)COCc1ccc(Cl)cc1` (configuration not stated), the Potency was “inactive”.
In the case of `COC(=O)c1c(NC(=O)c2ccc(S(=O)(=O)N3CCC(C)CC3)cc2)sc2c1CCN(C)C2`, the Potency is reported as inconclusive [inhibitor, single point].
With `CC(C)[C@H](NC(=O)c1ccccc1F)C(=O)OCC(=O)NC1CC1` the Potency was “inactive”.
For `Cc1ccc2c(c1)N(C(=O)CCC(=O)N1CCN(c3cccc(C)c3C)CC1)CCO2`, the Potency was active: 18.4 µM.
For `COc1ccc(-c2ccc3c(c2)[C@@H]2C[C@H](N(C)S(=O)(=O)c4ccccc4)[C@H]([C@H](C)O)C(=O)N2CC3)cc1`, the Potency was active: 16.4 µM.
In the case of `COc1cc2ccccc2cc1C(=O)Nc1cccc(-c2nc3cc(C)c(C)cc3o2)c1`, the Potency is reported as active: 14.6 µM.
In the case of `Cc1cc(N2CC(C)OC(C)C2)nc2ccccc12` (configuration not stated), the Potency is reported as inconclusive [inhibitor, single point].
With `CC1(C)CC(Cc2ccccc2C(F)(F)F)N(C(=O)OC(C)(C)C)C1` (configuration not stated) the Potency was inconclusive [inhibitor, single point].
In the case of `CC1Cc2ccccc2N1C(=O)Cn1cnc2ccccc21` (configuration not stated), the Potency is reported as inconclusive [inhibitor, partial curve, poor fit].
For `CC(C)CC(O)C1CCN(C(=O)CCc2nnc(-c3ccccc3)o2)CC1` (configuration not stated), the Potency was “inactive”.
In the case of `N#C/C(=C\c1cccnc1)C(=O)NC1CCCCC1`, the Potency is reported as active: 23.1 µM.
With `CN(C(=O)c1cccc(NC(=O)Cc2ccc(NC(=O)C3CCCN(C(=O)C4CCCC4)C3)cc2)c1)C1CCC1` (configuration not stated) the Potency was active: 20.6 µM.
With `CSCC[C@@H](CO)NC(=O)[C@H]1O[C@@H](n2ccc(=O)[nH]c2=O)[C@H](O)[C@@H]1O` the Potency was “inactive”.
In the case of `CCCCn1nnnc1C(c1cc2ccccc2o1)N1CCN(C(=O)OC(C)(C)C)CC1` (configuration not stated), the Potency is reported as inconclusive [inhibitor, partial curve, poor fit].
